# According to article PMC10668032:
# Some of the results follow. At the low end of the ranking the order means little.
# Target: SIX1 homeodomain (reference allele) (UniProt Q15475)
# Assay: universal protein binding microarray
# Details: Universal all-10-mer PBM (8x60K, AMADID 030236), 300 nM GST-tagged protein, Alexa Fluor 488 anti-GST; buffer, salt, pH and temperature not stated; high values mean tight binding; most listed sequences are background and not binding sites; double strand, one strand shown
row,Sequence,binding signal [E-score]
1,AGATGGGA,0.131
2,ACGTGGCT,-0.209
3,CCCTTCAG,-0.0951
4,CAGATGCA,-0.236
5,CAAAAATA,0.0414
6,ATAGCCCA,0.138
7,GGTAATGA,-0.0417
8,GGAAGAGA,-0.00443
9,GAAACCTC,0.0947
10,GCAAATGC,-0.33
11,ACTAAGGG,0.0359
12,GTATTTGA,0.117
13,CCATTAAC,-0.17
14,AGTTCTTG,-0.139
15,ATGCGATC,0.309
16,AGTGAAAC,0.0562
17,TCAAGCGA,-0.0338
18,CGTGGTCA,-0.188
19,ACCCAGTC,-0.131
20,ACCGGCTA,0.099
21,CGAAGCTA,-0.0395
22,TATATATA,0.344
23,TGTTGTAA,-0.197
24,CAAGAGAG,-0.145
25,CGTTACTA,-0.156

row,Sequence,binding signal [E-score]
1,GCTTTGTA,-0.126
2,AAGCCAAC,-0.0595
3,CATGACTA,-0.00197
4,ATCTTTGA,0.0646
5,CGTGTTCA,-0.0359
6,AGGAACTG,-0.371
7,AGGTTAAA,-0.0905
8,AGTCGGTG,-0.0306
9,CTCATTGC,-0.147
10,AACTGACA,-0.081
11,GGCATGGA,-0.0387
12,GTAGGGGA,0.0833
13,CTAACCCC,0.207
14,GCGAGACA,-0.0353
15,TACCTGGA,0.162
16,AGAGAACT,-0.0491
17,ATCTAGGG,0.187
18,CTCCTATA,0.0205
19,AAGCATCT,-0.124
20,ATGGGAGG,0.0284
21,ACAAGAGA,0.0171
22,ACACCTGG,0.172
23,AATTATTC,-0.242
24,TAGACCGA,0.0385
25,CAAGCATA,0.00112

row,Sequence,binding signal [E-score]
1,CAGCCGGA,0.168
2,CCATCCAG,-0.00847
3,TATGAAAA,0.1
4,CACCATAG,0.0397
5,GAAACACA,-0.113
6,GATACAGA,0.268
7,ACATCGCC,-0.299
8,CATTAATG,-0.0256
9,CGCACCCC,-0.0445
10,CAAAGGCC,-0.281
11,AGGCGCCC,-0.23
12,AACAGCGC,-0.109
13,AAGAGAAG,-0.0906
14,CATCGAGC,0.006
15,AGGCAGCC,-0.0571
16,ACAAGCCT,-0.281
17,CCCCACCC,0.254
18,ACATTTTA,-0.202
19,AATTAAGT,-0.107
20,AGTCTCTA,-0.257
21,GTCGCGGA,0.0563
22,ATGGTAAA,-0.22
23,ACCAATTC,-0.115
24,TAACGCTA,0.0239
25,ACCAACGG,-0.189

row,Sequence,binding signal [E-score]
1,CCTAGAGG,0.0822
2,AACATCAC,-0.117
3,GAAATATC,0.262
4,GAGAATTA,-0.261
5,AGTTGCCC,-0.197
6,CCAATGGA,0.027
7,GCATTCGA,0.0686
8,ATTTCGGG,-0.0974
9,CAGACATC,-0.0558
10,ACAAAATC,-0.183
11,CAGTTTCG,-0.0174
12,GACAGTTA,-0.0705
13,CAACAGCA,-0.107
14,ACTACGAG,-0.00238
15,TACATCTA,0.141
16,TAAGCGAA,-0.198
17,ATTGCTAG,-0.165
18,ATCCTTTC,0.212
19,CGTATACC,0.367
20,GGGAACAC,-0.0861
21,CATGTCCG,-0.204
22,GTTCCCCA,-0.168
23,CCGTGGTA,0.113
24,GAATGTCC,-0.115
25,CTACATGC,-0.00164

row,Sequence,binding signal [E-score]
1,ACTGTTCC,-0.331
2,GTCCCCCA,-0.237
3,CGAACAGA,-0.0625
4,AACGTACT,-0.202
5,AAGTTCTG,-0.297
6,CTAGCACC,-0.0732
7,ATCCTAAC,0.163
8,ATTCGGCA,0.0244
9,AGACAGAA,-0.095
10,CTACCAAC,-0.148
11,CACTACTC,0.0699
12,CGCATACG,-0.0416
13,GCCAGATA,0.213
14,TAAAGATA,0.167
15,ACGGTTGA,-0.25
16,CCACGCAA,0.0948
17,GCTCAAAC,0.0222
18,CCGTCGAG,0.121
19,TAACCCTA,-0.00804
20,AACTCCTC,-0.0664
21,ATCCATCC,0.343
22,AGCTCACG,-0.102
23,CTAACAAC,-0.124
24,GACGACGC,-0.258
25,CACCTGTA,0.0186

row,Sequence,binding signal [E-score]
1,CTGATAAC,0.051
2,ACGGGTGA,0.12
3,CAATAAGA,0.073
4,CAAGCTTC,-0.211
5,CATATTTC,-0.0131
6,CTCTATAC,0.112
7,ATGGCCTC,0.0204
8,ACGTCGAA,-0.278
9,AACTTTCC,-0.205
10,GAACGGAC,-0.161
11,AACATTAC,-0.233
12,AAATTTGA,0.0735
13,AGTGACAC,0.354
14,AAATATTA,-0.0387
15,CCTACAGG,-0.125
16,GATCCGAC,0.389
17,ACCTCACA,-0.0507
18,GAGGCGAC,-0.19
19,TCGCCTCA,-0.105
20,ACTAACTA,-0.0141
21,AGTATTTC,0.107
22,CTCCTAAC,-0.00143
23,AAGTTGGG,-0.14
24,GGGGTTAC,-0.0675
25,CGTGGTGA,-0.0689

row,Sequence,binding signal [E-score]
1,AACTGCTA,-0.11
2,AGGGTACT,-0.0162
3,AAAGCTCT,-0.166
4,ATAAGACA,0.0395
5,AATGGTCC,-0.194
6,CGAATGGA,0.0964
7,ATGTTGCC,0.0146
8,CCATGAGG,0.0198
9,CGCAGCCA,-0.0909
10,GACGGGAC,-0.293
11,AAGGGCGT,-0.119
12,AGAGATGG,0.134
13,ACTACGGA,-0.0534
14,GACGCTCC,-0.186
15,GCCTGGCA,-0.383
16,AACACTGT,-0.0656
17,ACTGGTAA,-0.0644
18,CCTATGAG,-0.0357
19,ACCGCTGG,0.103
20,ATATTAAC,0.156
21,CTGCGCCA,-0.204
22,CTTCCGCA,0.0362
